Source: PubChem BioAssay AID1347073 (National Center for Advancing Translational Sciences (NCATS), 2019)
The whole screen tested about 45,000 compounds, of which about 200 (0.44%) were called active. About 7% were inconclusive and are not listed. Calls follow the shape of the dose curve; as a rule, active = well fitted activation curve with a large enough effect; inconclusive = small, poorly fitted or top-dose-only effect; inactive = no such curve, though single readings can be large or run the other way. The list shows a part of the results.

Assay: qHTS of TDP-43 Inhibitors: NCGC Sytravon Library Screen; also: 0% is about no effect; nearly all actives have a fitted effect of over 55% in size
Conditions: yeast TDP-43 toxicity rescue, BacTiter-Glo growth, 24 h; series mostly up to 46.1 µM; growth rescue (activation): at the top concentration
How it was run: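 TDP-43-expressing yeast, pregrown in raffinose, seeded at OD600 0.02 in galactose medium with compound for 24 hr at 30 deg C. Growth read by BacTiter-Glo luminescence, so rescue of toxicity appears as activation.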

Row | Structure (SMILES) | growth rescue (activation)
1 | CC(=O)Nc1cccc(NC(=O)c2cc(Cl)ccc2Cl)c1 | inactive: 2.42%
2 | CC(=O)NC(C(=O)OCC(=O)N(c1ccccc1)c1ccccc1)C(C)C (stereo not drawn) | inactive: 25.7%
3 | COc1ccc(OC)c(/C=N/NC(=O)c2ccc3nc[nH]c3c2)c1 | inactive: 0.189%
4 | CCOC(=O)C1=C(C)N=C2SCCC(=O)N2C1c1sccc1C (stereo not drawn) | inactive: 8.16%
5 | O=C(O)c1ccccc1-c1ccccc1C(=O)Nc1nccs1 | inactive: -0.59%
6 | CC(C)(C)NC(=O)NC(=O)COC(=O)Cn1cnc2ccccc2c1=O | inactive: -10.5%
7 | O=C(NNC(=S)NCc1ccc(Cl)cc1)c1ccc(Br)o1 | inactive: 7.05%
8 | COc1cc2c(=O)n(CCC(=O)NCC3CCCO3)c(=O)n(CC(=O)Nc3ccc(F)cc3)c2cc1OC (stereo not drawn) | inactive: 17.1%
9 | COc1ccccc1C(=O)Nc1ccc(S(=O)(=O)Nc2cc(C)on2)cc1 | inactive: -8.63%
10 | C=CCn1c(SCC(=O)Nc2ccc(N3CCOCC3)cc2)nnc1-c1ccco1 | inactive: 7.14%
11 | O=C(Nc1cc(Sc2nc3ccccc3s2)cc([N+](=O)[O-])c1)c1ccccc1 | inactive: 19.3%
12 | C[C@@H](C(=O)NCCCCCC(=O)O)n1nnc2ccccc2c1=O | inactive: 27.2%
13 | CC(=O)N1CCN(C(=S)Nc2ccc(Oc3ccccc3)cc2)CC1 | inactive: 21.5%
14 | COCCCn1c(=O)c2ccccc2n(CC(=O)NC2CCCC2)c1=O | inactive: 19.9%
15 | CC(C)c1nnc(NC(=O)Cc2ccc(Br)cc2)s1 | inactive: 12.2%
16 | CC(C)[C@H](NC(=O)c1ccc(Cl)c([N+](=O)[O-])c1)C(=O)NCc1ccc(Cl)cc1Cl | inactive: 23%
17 | CCC(NC(=S)Nc1ccccc1)C(=O)O (stereo not drawn) | inactive: 5.04%
18 | Cc1ccsc1CN(C(=O)c1oc2ccccc2c1C)C1CCS(=O)(=O)C1 (stereo not drawn) | inactive: 12.1%
19 | CC(C)C(OC(=O)c1ccco1)C(=O)NCc1cccs1 (stereo not drawn) | inactive: 26.6%
20 | Cc1ccccc1C(=O)NNC(=O)CCC(=O)Nc1cccc(Cl)c1C | inactive: -15.3%
21 | C(=N\Nc1nc2ccccc2[nH]1)/c1cccs1 | inactive: 21%
22 | CC1=CC(C)(C)Nc2ccc(OC(=O)CN3C(=O)c4ccccc4C3=O)cc21 | inactive: 36.2%

Row | Structure (SMILES) | growth rescue (activation)
23 | COc1ccc(/C=N/NC2=NS(=O)(=O)c3ccccc32)cc1OC | inactive: 5.41%
24 | Cc1ccc2c(c1)N(CC(=O)N1CCN(C3CCCCC3)CC1)C(=O)CO2 | inactive: 6.31%
25 | CSc1ccc(-c2nc(CN3CCCCC3c3cccnc3)c(C)o2)cc1 (stereo not drawn) | inactive: 11.2%
26 | COCc1cnc(C)nc1N | inactive: 14.8%
27 | Cc1nc(SCc2ccc(C(=O)O)cc2)c2c(C)c(C)sc2n1 | inactive: 7.11%
28 | O=C(COC(=O)c1cncc(Br)c1)NCC12CC3CC(CC(C3)C1)C2 | inactive: -9.56%
29 | Cc1sc2ncnc(SCC(=O)NC3CCCC3)c2c1C | inactive: 15%
30 | CC(C)(C)c1ccc(CN2N=C(/C=C/c3ccccc3)CCC2=O)cc1 | inactive: 1.35%
31 | C=CCn1c(SCC(=O)Nc2ccccc2C)nnc1-c1ccncc1 | inactive: 9.16%
32 | COc1ccc(OC)c(NC(=O)Nc2cc(C(=O)O)ccc2C)c1 | inactive: 12%
33 | O=C(N/N=C/c1c[nH]c2ccccc12)c1cc(-c2cccc3ccccc23)n[nH]1 | inactive: -5.36%
34 | N#CCCn1cc(C(=O)Nc2ccc([N+](=O)[O-])cc2)c(-c2cc3ccccc3o2)n1 | inactive: 4.91%
35 | COCCN(C(=S)Nc1cccc(C)c1C)C(C)c1ccco1 (stereo not drawn) | inactive: 12%
36 | Cc1cc(N)n(-c2ccc(Oc3ccccc3)c(S(=O)(=O)O)c2)n1 | inactive: -1.33%
37 | CCOC(=O)c1[nH]c(C)c(C(=O)N2CCN(c3ccc(OC)cc3)CC2)c1C | inactive: 2.67%
38 | COc1cccc(C(=O)C2CCCN(C/C=C/c3ccccc3OC)C2)c1 (stereo not drawn) | inactive: 7.16%
39 | Cc1ccc(-n2c(SCC(=O)N3CCC(C(=O)O)CC3)nc3ccccc3c2=O)cc1C | inactive: 29.9%
40 | Cc1cnc(C(=O)OCC(=O)Nc2ccccc2[N+](=O)[O-])cn1 | inactive: 13.1%
41 | CN1CCN(c2cc(C(F)(F)F)nc(-c3ccccn3)n2)CC1 | inactive: 31.1%
42 | CCN(CC)S(=O)(=O)c1cccc(C(=O)N/N=C/c2ccc(OC)c(O)c2)c1 | inactive: -1.02%
43 | Cc1cccc(NC(=O)COC(=O)C2C3CC4OC(=O)C2C4C3)c1C (stereo not drawn) | inactive: 5.46%
44 | CCCOc1ccc(C2C(C(=O)c3ccco3)=C(O)C(=O)N2CCCn2ccnc2)cc1 (stereo not drawn) | inactive: 11.3%

Row | Structure (SMILES) | growth rescue (activation)
45 | CCc1ccc(CN2C(=O)c3ccccc3C2C(=O)NC(C)CC)cc1 (stereo not drawn) | inactive: -0.198%
46 | CCc1ccc(NC(=O)/C(C#N)=C/c2cc3ccc(C)cc3nc2N2CCOCC2)cc1 | inactive: 3.51%
47 | CNC(=O)c1ccc(NC(=O)c2nsc3ccccc23)cc1 | inactive: 23.9%
48 | CC(C)CC(=O)Nc1ccc2c3c(cccc13)CC2 | inactive: 28.9%
49 | CC1(NC(=S)NCCCCCCNC(=S)NC2(C)CCS(=O)(=O)C2)CCS(=O)(=O)C1 (stereo not drawn) | inactive: 2.21%
50 | CC1CCCCC1NC(=O)COC(=O)COc1ccccc1F (stereo not drawn) | inactive: 6.63%
51 | Cc1cc([N+](=O)[O-])nn1Cn1nc([N+](=O)[O-])cc1C | inactive: 5.05%
52 | O=C(N/N=C/c1ccco1)c1cccc(NC(=O)c2cccc(Cl)c2)c1 | inactive: 1.52%
53 | O=C(CN1C(=O)c2ccccc2S1(=O)=O)NCCSCc1ccccc1Cl | inactive: 2.75%
54 | O=C(O)c1nn(CCOc2c(Cl)cccc2Cl)c(=O)c2ccccc12 | inactive: 8.84%
55 | c1cnc2c(-c3cccc4nccn34)cccc2c1 | inactive: 5.22%
56 | CSc1ccc(Cl)c(C(=O)Nc2cc(S(=O)(=O)N3CCOCC3)ccc2N2CCOCC2)c1 | inactive: -0.427%
57 | Cc1ccc(OCc2nnc(N)s2)cc1 | inactive: 0.478%
58 | CC(C)CCN1CCN(Cc2ccc3nsnc3c2)CC1CCO (stereo not drawn) | inactive: -4.17%
59 | CCCS(=O)(=O)N1CCCC(C(=O)NCC(OC)OC)C1 (stereo not drawn) | inactive: 8.77%
60 | COCCC(=O)N1CCCC(CCC(=O)NCc2ccc(F)c(F)c2)C1 (stereo not drawn) | inactive: -3.46%
61 | Cc1cc(NC(=O)c2ccc3c(c2)C(=O)N(C2CCCCC2)C3=O)no1 | inactive: 7.32%
62 | O=[N+]([O-])c1cc(/C=N/n2c(-c3ccncc3)n[nH]c2=S)ccc1Cl | inactive: 1.91%
63 | COCCN1Cc2cccc(C(=O)Nc3ccc(S(=O)(=O)N4CCCCC4)cc3)c2C1=O | inactive: 6.8%
64 | O=C(NCc1nc(-c2ccc(Cl)cc2)no1)c1ccco1 | inactive: 13.6%
65 | O=C(Cc1cccs1)N/N=C/c1ccccn1 | inactive: -2.61%
66 | CCN(c1ccccc1)S(=O)(=O)c1cc(C(=O)Nc2ccc(Br)cc2)ccc1F | inactive: -38%

Row | Structure (SMILES) | growth rescue (activation)
67 | Cc1ccc(C2(C)NC(=O)N(CC(=O)N(Cc3ccccc3)C(C)(C)C)C2=O)cc1 (stereo not drawn) | inactive: 8.26%
68 | [O-]/C(=C(\C(=S)Nc1ccc(SC(F)F)cc1)[n+]1ccccc1)c1ccc(Cl)cc1Cl | inactive: 0.877%
69 | CC1(C)C(=O)C2(CCCCC2)C(=O)OC1c1cccc([N+](=O)[O-])c1 (stereo not drawn) | inactive: -4.33%
70 | CC(=O)c1c(C)oc2ccc(NS(=O)(=O)c3ccc(C(=O)O)cc3)cc12 | inactive: 10.8%
71 | CCOC(=O)C1(C)CCN1C(=O)c1ccc(C)cc1 (stereo not drawn) | inactive: 9.24%
72 | Cc1cccc(-c2nnc(SCC(=O)O)n2Cc2ccccc2)c1 | inactive: 13.5%
73 | COc1ccccc1COC(=O)c1cccc(S(=O)(=O)N2CCCC2)c1 | inactive: 16.8%
74 | Cc1cc(C(F)F)n2nc(C(=O)Nc3cccc(C(F)(F)F)c3)nc2n1 | inactive: 19.1%
75 | Cc1cc(NC(=O)CSc2sc3c(O)cc(=O)[nH]c3c2C#N)ccc1Br | inactive: 13.2%
76 | Cc1ccc(S(=O)(=O)N2CCOCC2)cc1NC(=O)COC(=O)c1ccc(Cl)s1 | inactive: 2.68%
77 | CC(C)Oc1ccc(CCC(=O)N/N=C/c2ccc3c(c2)OCO3)cc1 | inactive: 6.38%
78 | COc1ccc(N(CC(=O)Nc2cccc(SC)c2)S(C)(=O)=O)cc1 | inactive: 2%
79 | COc1ccc([N+](=O)[O-])cc1NC(=O)C1C2C=CC(C2)C1C(=O)O (stereo not drawn) | inactive: -6.15%
80 | O=C(Cc1ccc(Br)cc1)Nc1ccccc1Cl | inactive: 20.9%
81 | Cc1cc(NC(=O)CCC(=O)N(Cc2ccccc2)C2(C(=O)NC3CCCCC3)CCCC2)no1 | inactive: 0.0972%
82 | CN(C(=O)c1nc(-c2ccccc2)n(-c2ccccc2)n1)C1CCS(=O)(=O)C1 (stereo not drawn) | inactive: 9.53%
83 | COc1cc(CNc2ncn[nH]2)ccc1OCc1ccccc1C | inactive: 0.816%
84 | C1CC(CN2CCOCC2)CN(c2nc3nonc3nc2N2CCSCC2)C1 (stereo not drawn) | inactive: -5.25%
85 | Cc1ccc(NS(=O)(=O)c2ccc(NC(=O)c3cccs3)cc2)c(C)c1 | inactive: 23.9%
86 | Cc1ccc(C(=O)NC2CCCCC2)cc1S(=O)(=O)N1CCCC1 | inactive: 10.5%
87 | O=C(O)Cc1c(C(=O)O)[nH]c2ccc(C(=O)O)cc12 | inactive: -0.336%
88 | Cc1ccc2c(c1)N(Cc1ccccc1)C(=O)C(C)S2 (stereo not drawn) | inactive: 16.9%

Row | Structure (SMILES) | growth rescue (activation)
89 | CCCOc1ccc(/C=C/C(=O)Nc2ccc([N+](=O)[O-])cc2)cc1 | inactive: 18.2%
90 | CN(C)c1ccc(S(=O)(=O)c2ccc(Cl)cc2)cc1 | inactive: 6.38%
91 | Cc1nn(CCC#N)c2[nH]c(=O)cc(C(F)(F)F)c12 | inactive: 12.1%
92 | COc1ccc(NC(=O)c2c(C)oc3ccc(O)c(CN4CCCC(C)C4)c23)cc1Cl (stereo not drawn) | inactive: 19.5%
93 | CCc1nnc(NC(=O)C(c2ccccc2)c2ccccc2)s1 | inactive: -6.12%
94 | COC(=O)c1ccc(CSc2nc3ccc(S(=O)(=O)N4CCOCC4)cc3[nH]2)cc1 | inactive: 11.6%
95 | O=C1c2ccccc2C(=O)N1COc1ccc(S(=O)(=O)N2CCOCC2)cc1[N+](=O)[O-] | inactive: 3.43%
96 | Cc1c([N+](=O)[O-])ccc(S(=O)(=O)N2CCC(C(N)=O)CC2)c1C | inactive: 1.81%
97 | CCCC(NC(=O)CCc1c(C)c2cc3c4c(oc3c(C)c2oc1=O)CCCC4)C(=O)O (stereo not drawn) | inactive: -8.51%
98 | COc1ccc(C(=O)C[n+]2cccc(C)c2)cc1 | inactive: 3.07%
99 | CCCCN(C(=O)C1CCCO1)c1c(N)n(CCC)c(=O)[nH]c1=O (stereo not drawn) | inactive: 27.8%
100 | CCC(Oc1ccccc1F)C(=O)NCCCn1ccnc1 (stereo not drawn) | inactive: -17.7%
101 | CSc1ccc(S(=O)(=O)N2CCC(C(=O)Nc3cccnc3)CC2)cc1 | inactive: -32.4%
102 | COC(=O)Cc1ccc(NC(=S)N2CCN(C)CC2)cc1 | inactive: 4.31%
103 | C=CCOc1ccc(C=Nc2cccc(Cl)c2)c(O)c1 | inactive: -1.37%
104 | CCc1nc2ccc(C(=O)NCCCN3CCN(c4ccccc4F)CC3)cc2nc1CC | inactive: 1.72%
105 | O=C(c1cc(-c2ccccc2O)on1)N1CCCCCC1 | inactive: 22.9%
106 | CS(=O)(=O)c1ccc2nc(NC(=O)c3ccc(N4CCCC4=O)cc3)sc2c1 | inactive: 13.6%
107 | Cc1ccc(CC2CC(=O)N(c3nc4ccccc4s3)C2=O)cc1 (stereo not drawn) | inactive: 24.8%
108 | O=C(c1ccncc1)N1CCN(C2CCC(c3ccccc3)CC2)CC1 (stereo not drawn) | inactive: -6.62%
